Holding throughout (assay type): cell-based
One data set deals with human platelets. Briefly: Platelet phagocytosis assay, human. Conditions: up to 3 mg/ml, lowest positive concentration. Here is the method:
(§1) To address any potential Fc gamma receptor induced platelet depletion, a subset of the antibodies described herein was tested in a Phagocytosis Assay.
(§2) In brief, whole blood samples from healthy cynomolgus donors were centrifuged at 170×g for 15 minutes with no braking. Platelet-rich plasma (PRP) was collected from the top layer. The bottom layers of the sample were centrifuged at 2000×g for 10 minutes to obtain the platelet-poor plasma (PPP) layer and buffy coat. Platelets in the PRP fraction were labeled with 20 μM Cell Tracker Green CMFDA for 30 minutes at room temperature. Labeled platelets were washed with PBS, resuspended in RPMI-1640 with 10% FBS, and adjusted to a concentration of 1×10^8 cells/mL. PBL were prepared from the buffy coat obtained from the same donor. Erythrocytes were lysed with BD Pharm-lyse following the protocol provided by the vendor. […]
(§3) The phagocytosis reaction was initiated by incubating 100 μL each of CMFDA-labeled platelets and PBMC with test articles in the dark. […] Extracellular fluorescence was quenched by incubating 2 minutes with 0.1% trypan blue. […] After washing, the cells were analyzed by a BD LSRII Flow Cytometer (FIG. 2). Based on previous experiences, monocytes phagocytosing platelets have CMFDA median fluorescence intensity values at least 2-fold or higher than negative controls (either a-SA or a-DNP) (2).

Another data set addresses T1, human PAC1 (hPAC1) (Homo sapiens, UniProt P41586).
T1 construct: expressed in transfected cells; host or cells: CHO (PAC1-CHO; also hPAC1-CHO-K1, Perkin Elmer ES-272-A)
T1 sequence (P41586 21-468): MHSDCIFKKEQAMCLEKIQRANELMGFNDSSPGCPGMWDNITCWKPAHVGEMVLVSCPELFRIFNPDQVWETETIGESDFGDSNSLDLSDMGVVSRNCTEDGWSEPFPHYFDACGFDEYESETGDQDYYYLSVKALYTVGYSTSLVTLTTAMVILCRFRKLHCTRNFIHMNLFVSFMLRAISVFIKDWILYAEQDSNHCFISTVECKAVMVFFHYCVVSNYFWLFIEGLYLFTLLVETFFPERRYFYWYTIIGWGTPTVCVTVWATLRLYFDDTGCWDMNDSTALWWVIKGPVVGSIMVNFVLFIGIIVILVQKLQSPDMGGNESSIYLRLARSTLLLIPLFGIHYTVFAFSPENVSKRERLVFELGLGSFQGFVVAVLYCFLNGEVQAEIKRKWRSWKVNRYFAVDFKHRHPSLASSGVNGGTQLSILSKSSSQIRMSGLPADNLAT
Briefly: cAMP assay, cells expressing recombinant human PAC1 (hPAC1-CHO). The conditions noted are these: agonist activity of anti-PAC1 antibody in cAMP assay. The protocol: (§4) Selected hPAC1 antibodies as described herein were screened in an in vitro PAC1 mediated cAMP assay to determine intrinsic potency.
(§5) PAC1-CHO, Rat PAC1, and Cyno PAC1 cells were grown in Dulbecco's modified Eagle's medium (DMEM) (Gibco Cat #11965), 10% dialyzed FBS (Invitrogen 26400044), 1% MEM non-essential amino acids (Invitrogen 11140-050), 1% sodium pyruvate (Invitrogen 11360070), 1% glutamine/pen/strep (Invitrogen 10378016).
(§6) The cells were grown under the conditions described above and harvested at 80-90% confluence. The cells were dissociated with VERSENE (1:5000, Invitrogen, 15040-060) for SHSY5Y cells; with 0.05% Trypsin-EDTA (1×), Phenol Red (Invitrogen, 25300054), and were then centrifuged in a Beckman GS-6R unit at 1000 rpm for 5 minutes at 4° C. The pellets were resuspended with cell freezing medium (Invitrogen, 12648010). The cells were then counted using a Z1 Coulter Particle Counter and adjusted to desired concentration (5E6/ml or 2E6/ml) and aliquots were stored at −80° C. or in liquid nitrogen until use. Concentrations for PAC1 cells, hVPAC1/2 CHO were 4K/10 μl; the others at 2K/10 μl; for SKNMC and L6, the concentration was 1K/10 μl.
(§7) The LANCE Ultra cAMP assay kit (PerkinElmer, Boston, Mass.) was used in the screening. The assays were performed in triplicate in white Optiplates half-area 96-well plates (Costar 3642) in a total volume of 40 μL. […]
(Changes in cAMP serve as a functional read-out for many G protein-coupled receptors.)

Data set [1] concerns the target T2, hPAC1 short (hPAC1 with amino acid residues 89-109 deleted) (Homo sapiens, UniProt P41586).
T2 construct: range used: 1-88, 110-468; expressed in transfected cells
T2 sequence (P41586 21-447 isoform P41586-3): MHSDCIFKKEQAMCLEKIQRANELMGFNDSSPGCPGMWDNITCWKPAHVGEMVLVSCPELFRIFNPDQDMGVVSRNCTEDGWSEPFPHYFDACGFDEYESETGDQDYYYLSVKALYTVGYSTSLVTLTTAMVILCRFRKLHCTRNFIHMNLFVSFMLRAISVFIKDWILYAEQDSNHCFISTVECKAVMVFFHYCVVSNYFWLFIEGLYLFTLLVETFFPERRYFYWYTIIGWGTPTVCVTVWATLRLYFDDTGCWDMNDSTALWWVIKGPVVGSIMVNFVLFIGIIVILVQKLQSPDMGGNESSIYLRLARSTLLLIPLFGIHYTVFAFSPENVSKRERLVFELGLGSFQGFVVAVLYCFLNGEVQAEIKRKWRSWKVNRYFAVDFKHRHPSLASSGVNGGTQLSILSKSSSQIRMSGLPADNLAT
The data set can be described thus: cAMP assay, cells expressing recombinant hPAC1 short. Here is the method:
as §4, §5, §6, §7

The subject of the next data set is cynomolgus platelets. The data set can be described thus: Platelet phagocytosis assay, cynomolgus. Conditions: up to 3 mg/ml, lowest positive concentration. The protocol:
as §1, §2, §3

The values that follow come from patent US10793631B2, “Human PAC1 antibodies” (AMGEN INC., priority 2013, dated 2020).

What is called IC50 is the midpoint of a concentration-inhibition curve.

B1: 29B: anti-hPAC1 antibody, LC-11 and HC-40; aglycosylated IgG1 (antibody)
heavy: QVQLVESGGGVVQPGRSLRLSCAASGFTFSRYAMHWVRQASGKGLEWVAVISYDGSNKYYADSVKGRFTISRDNSKNTLYLLMSSLRAEDTAVFYCARGYDILTGYPDYWGQGTLVTVSSASTKGPSVFPLAPSSKSTSGGTAALGCLVKDYFPEPVTVSWNSGALTSGVHTFPAVLQSSGLYSLSSVVTVPSSSLGTQTYICNVNHKPSNTKVDKKV[no letters for human IgG1 Fc with changes]
light: DIQLTQSPSFLSASVGDRVTITCRASQSIGRSLHWYQQKPGKAPKLLFKYASQSLSGVPSRFSGSGSGTEFTLTISSLQPEDFATYYCHQSSRLPFTFGPGTKVDIKRTVAAPSVFIFPPSDEQLKSGTASVVCLLNNFYPREAKVQWKVDNALQSGNSQESVTEQDSKDSTYSLSSTLTLSKADYEKHKVYACEVTHQGLSSPVTKSFNRGEC
modifications: aglycosylated IgG1; Synthetic HC-40 polypeptide; Synthetic LC-11 polypeptide
notes: anti-hPAC1 antibody, LC-11 and HC-40; aglycosylated IgG1
As for B1, the human platelet entry in the data set on human platelets is “Negative”. In addition, the Agonist activity in the data set with human PAC1 (hPAC1) is above 10 µM. Besides, in data set [1], the IC50 was found to be 4.7 ± 2.4 nM. Moreover, in the data set with cynomolgus platelets, the cyno platelet result was “Negative”.
